Values belong to the binder of their own block, whether it stands above or below them.
Tests used:
[1] = target: T1, human PD-L1 protein (purchased from AcroBiosystems) (human, UniProt Q9NZQ7 part only, biotinylated in the blocking assay); assay: BLI (ForteBio), antibody on AHQ sensor, 100 nM PD-L1 antigen, 1:1 model
T1 construct: Bought soluble protein; also called PD-L1 antigen; biotinylated human PD-L1 protein
Description: (§1) ForteBio affinity determination was carried out according to existing methods (Estep, P et al., High throughput solution-based measurement of antibody-antigen affinity and epitope binning. MAbs, 2013.5(2): p. 270-8). In short, the sensor was equilibrated for 30 min under the line of the analysis buffer, and then the baseline was established after online detection for 60 s. The purified antibody obtained as described above was loaded onto the AhQ sensor online. […] Kinetic analysis was performed using a 1:1 binding model.

[2] = target: T2, human PD-L2 protein (purchased from AcroBiosystems) (human, UniProt Q9BQ51 20-219, limits assumed, biotinylated in the blocking assays); assay: BLI (ForteBio), antibody on AHQ sensor, 100 nM PD-L2 antigen, 1:1 model
T2 construct: Bought soluble protein; also called PD-L2 antigen; biotinylated human PD-L2 protein
T2 sequence (looked up): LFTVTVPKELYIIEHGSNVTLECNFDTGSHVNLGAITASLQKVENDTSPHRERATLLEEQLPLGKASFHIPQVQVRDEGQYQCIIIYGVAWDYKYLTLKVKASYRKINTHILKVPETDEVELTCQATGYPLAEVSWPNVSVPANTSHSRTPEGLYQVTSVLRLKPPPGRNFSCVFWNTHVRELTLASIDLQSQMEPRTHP
Description: as §1

[3] = target: T3, human PD-L1 on CHO cells (CHO-hPD-L1 cells) (human, UniProt Q9NZQ7); assay: flow cytometry on CHO-hPD-L1 cells, PE anti-human IgG-Fc, MFI; table under the plot, unit from the concentration axis
T3 construct: whole, on cells; also called CHO-K1-PD-L1/PD-L2

[4] = target: T4, human PD-L2 on CHO cells (CHO-hPD-L2 cells) (human, UniProt Q9BQ51 20-273); assay: flow cytometry on CHO-hPD-L2 cells, PE anti-human IgG-Fc, MFI; table under the plot, unit from the concentration axis
T4 construct: whole, on cells; also called CHO-K1-PD-L1/PD-L2
T4 sequence (looked up): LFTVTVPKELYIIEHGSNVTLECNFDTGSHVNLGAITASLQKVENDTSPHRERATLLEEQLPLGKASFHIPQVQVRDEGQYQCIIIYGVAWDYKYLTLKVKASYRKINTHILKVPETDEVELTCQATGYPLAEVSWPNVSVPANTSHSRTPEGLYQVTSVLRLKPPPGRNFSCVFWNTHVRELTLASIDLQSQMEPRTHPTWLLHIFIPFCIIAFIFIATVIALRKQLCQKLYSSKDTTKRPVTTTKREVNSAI

[5] = target: T1, human PD-L1 protein (purchased from …); assay: flow cytometry blocking assay: antibody pre-incubated with biotinylated human PD-L1 protein (1 ug/ml), binding of PD-L1 to CHO-hPD-1 cells read as MFI; falling curve, the table under the plot calls the half-maximal concentration EC50; unit from the concentration axis
Description: (§2) The expanded CHO-hPD-1 cells were adjusted to a cell density of 2 ×10^6 cells/ml, and were added to 96-well flow plate at 100 μl/well, and centrifuged for later use. The purified mutant sample was diluted with PBS and diluted 3 times from […] for 12 points.
(§3) 28 purified sample at 4° C. for 30 min. The co-incubation sample was added to the above-mentioned 96-well flow plate with cells at 100 μl/well, incubated at 4° C. for 30 min, and washed twice with PBS. APC goat anti-mouse IgG (minimum×reactivity) antibody diluted 100 times with PBS (purchased from Biolegend®) was added at 100 μl/well, incubated at 4° C. for 30 min, and washed twice with PBS. PBS was added at 100 μl/well to resuspend cells, and detection was performed on a CytoFlex (Bechman) flow cytometer and the corresponding MFI was calculated.

[6] = target: T2, human PD-L2 protein (purchased from …); assay: flow cytometry blocking assay: antibody pre-incubated with biotinylated human PD-L2 protein (1 ug/ml), binding of PD-L2 to CHO-hPD-1 cells read as MFI (APC); falling curve, the table under the plot calls the half-maximal concentration EC50; unit from the concentration axis
Description: as §2, §3

Kd [1]: 0.481 nM
koff [1]: 0.000161 s⁻¹
kon [1]: 334000 M⁻¹ s⁻¹
Kd [2]: 0.445 nM
koff [2]: 0.000234 s⁻¹
kon [2]: 525000 M⁻¹ s⁻¹
EC50 [3]: 4.78 nM
EC50 [4]: 2.89 nM
EC50 [5]: 22.9 nM
EC50 [6]: 32.2 nM
B1: Bi-201 (bispecific antibody)
chain: QVQLVESGGGLVKPGGSLRLSCAASGHTFIIYAIGWFRQAPGKGLEFVATINWSGSMTNYADSVKGRFTISRDNAKNTVYLQMNSLKPDDTAVYYCAAYVGATISTAHSRYDYWGQGTLVTVSS[human IgG1 Fc with changes left out here]GGGGSGGGGSGGGGSGGGGSGEVQLVESGGGLVQPGGSLRLSCAASGRTFSSMTIGWFRQAPGKGLEFVSGIGWTSGLTVYADSVKGRFTISRDNAKNSMYLQMNSLRAEDTAVYYCAADSMNRGQFDYWGQGTLVTVSS
notes: Formula I format

Kd [1]: 1.66 nM
koff [1]: 0.000343 s⁻¹
kon [1]: 207000 M⁻¹ s⁻¹
Kd [2]: 1.2 nM
koff [2]: 0.000395 s⁻¹
kon [2]: 329000 M⁻¹ s⁻¹
EC50 [3]: 3.81 nM
EC50 [4]: 1.56 nM
EC50 [5]: 11.5 nM
EC50 [6]: 20.8 nM
B2: Bi-202 (bispecific antibody)
chain: QVQLVESGGGLVKPGGSLRLSCAASGHTFIIYAIGWFRQAPGKGLEFVATINWSGSMTNYADSVKGRFTISRDNAKNTVYLQMNSLKPDDTAVYYCAAYVGATISTAHSRYDYWGQGTLVTVSSGGGGGSGGGGSGGGGSGGGGSGEVQLVESGGGLVQPGGSLRLSCAASGRTFSSMTIGWFRQAPGKGLEFVSGIGWTSGLTVYADSVKGRFTISRDNAKNSMYLQMNSLRAEDTAVYYCAADSMNRGQFDYWGQGTLVTVSS[human IgG1 Fc with changes left out here]
notes: Formula II format

From patent US12600782 (BIOTHEUS, dated 2026)
